Laboratory results reported in PubChem BioAssay AID2546 (National Center for Advancing Translational Sciences (NCATS), 2010).
The whole screen tested about 310,000 compounds, of which about 11,000 (3.5%) were called active. The shares of active, inactive and inconclusive entries below differ from those in the screen. Calls follow the shape of the dose curve; as a rule, active = well fitted inhibition curve with a large enough effect; inconclusive = small, poorly fitted or top-dose-only effect, or effect the other way; inactive = flat fitted curve, though single readings scatter. Potencies of inconclusive entries are left out as doubtful fits.
% is scaled to controls: 0 for no effect and ±100 for the full control effect; potency is read from the fitted curve at half-maximal effect; tags tell the direction and shape of the fitted curve.

Test: VP16 counterscreen qHTS for inhibitors of ROR gamma transcriptional activity;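 also: Gal4-VP16 expression switched on by copper sulfate through the metallothionein promoter; nearly all actives have a fitted effect of over 50% in size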
Details: Drosophila S2 Gal4-VP16 UAS-luciferase, luminescence, 20 h; activity, negative = inhibition: at 53.6 µM (top of the series)
In the case of `Cc1ccc(C(=O)NCCc2ccccc2)cc1`, the Potency is reported as active: 3.98 µM. In the case of `CSc1ccccc1OCc1cc(C(=O)N(C)Cc2c(C)n[nH]c2C)no1`, the “activity, negative = inhibition” value is reported as inactive: -1.27%. In the case of `O=C(Cc1ccc(Br)cc1)N1CCN(c2ccccc2O)CC1`, the Potency is reported as inconclusive [inhibitor, single point]. For `COc1ccc(-n2c(=S)[nH]c3cc(C(=O)N4CCN(c5ccccc5)CC4)ccc3c2=O)c(OC)c1`, the Potency was active: 12.6 µM. With `CCCN(CC(=O)Nc1ccc(C)cc1Br)CC(=O)Nc1ccc(F)c(F)c1F` the Potency was inconclusive [inhibitor, single point]. For `O=C1c2[nH]nc(-c3ccccc3O)c2C(c2ccccc2)N1Cc1ccco1` (configuration not stated), the Potency was inconclusive [inhibitor, single point]. With `COC(=O)C1=C(C(=O)OC)C(c2ccccc2O)c2sc(=O)[nH]c2S1` (configuration not stated) the Potency was inconclusive [inhibitor, single point]. With `Cc1ccc(C(=O)N/C(=C\c2cn(C)c3ccccc23)C(=O)NCCCN2CCOCC2)cc1` the “activity, negative = inhibition” value was inactive: -3.56%. With `CNC1=C(Cl)C(=O)c2ccncc2C1=O` the Potency was active: 5.62 µM. For `COc1ccccc1/C=C/C(=O)c1ccc(NC(C)=O)cc1`, the Potency was inconclusive [inhibitor, single point]. With `O=[N+]([O-])c1cc(S(=O)(=O)N2CCCCCC2)ccc1F` the Potency was active: 4.47 µM. In the case of `COc1ccc(NC(=O)CSc2nc3c(sc4ccccc43)c(=O)n2CCCN2CCCC2)cc1`, the Potency is reported as inconclusive [inhibitor, single point]. With `CC(C)CN=C(NS(=O)(=O)c1ccccc1)C(Cl)(Cl)Cl` the Potency was inconclusive [inhibitor, single point]. With `Oc1ccc(N=Cc2ccc(-c3cccs3)s2)cc1` the Potency was inconclusive [inhibitor, single point]. For `Cc1nn(S(=O)(=O)c2ccc(Cl)cc2)c(C)c1Sc1ccc([N+](=O)[O-])cc1`, the Potency was inconclusive [inhibitor, single point]. With `C=CCOc1ccc(/C=N/Nc2ccccn2)cc1OC` the Potency was inconclusive [inhibitor, full curve, poor fit]. With `CCCC(c1nnnn1C(C)(C)CC)N(CCCO)Cc1cc2cc(C)cc(C)c2[nH]c1=O` (configuration not stated) the Potency was inconclusive [inhibitor, single point]. In the case of `Nc1cc(-c2ccc(Cl)cc2)nn1S(=O)(=O)c1cccc2nsnc12`, the “activity, negative = inhibition” value is reported as inactive: 1.03%. In the case of `Cc1ccccc1NC(=S)c1nc2ccccc2[nH]1`, the Potency is reported as inconclusive [inhibitor, single point]. For `C/C(=N\Nc1ccccn1)c1ccc(OC(F)F)cc1`, the Potency was inconclusive [inhibitor, single point]. In the case of `CCOC(=O)N1CCC(=NNC(=O)NC2CCCCC2)CC1`, the “activity, negative = inhibition” value is reported as inactive: -15.9%. With `CCOC(=O)NN=C1CCC(c2ccccc2)CC1` (configuration not stated) the “activity, negative = inhibition” value was inactive: 9.42%. For `Cc1cccc(NC(=O)C(=O)NNC(=O)c2ccc(C(C)(C)C)cc2)c1`, the Potency was active: 10 µM. In the case of `Cc1cc(OCC(=O)N2CCC(O)CC2)c2c(C)cc(=O)oc2c1`, the “activity, negative = inhibition” value is reported as inactive: 0.655%. With `CCC(=O)c1ccc(N2CCN(C(=O)c3cc([N+](=O)[O-])ccc3F)CC2)c(F)c1` the Potency was inconclusive [inhibitor, partial curve, poor fit]. With `CCOc1ccc(-c2cc(CCCC(=O)NCc3ccco3)no2)cc1` the Potency was inconclusive [inhibitor, full curve]. In the case of `c1ccc(CNc2ncnc3scc(-c4cccs4)c23)nc1`, the Potency is reported as inconclusive [inhibitor, partial curve]. For `COc1cccc(Cn2nnc(C(=O)Nc3ccc(C)cc3)c2N)c1`, the “activity, negative = inhibition” value was inactive: -2.52%. With `CCC1C/C(=C/c2ccco2)C(=O)/C(=C/c2ccco2)C1` (configuration not stated) the Potency was inconclusive [inhibitor, single point]. In the case of `CCN(Cc1cc(=O)n2cc(Cl)c(C)c(Cl)c2n1)Cc1nc2ccccc2c(=O)[nH]1`, the Potency is reported as inconclusive [inhibitor, single point]. With `CC(=O)C1=C(c2ccc(Br)cc2)C(=O)c2ccccc2C1=O` the Potency was active: 6.31 µM. In the case of `Cc1nc2ccccn2c1-c1csc(Nc2ccc(C(=O)O)cc2)n1`, the “activity, negative = inhibition” value is reported as inactive: 1.04%. In the case of `CN1CCN(c2ccc(NC(=O)CSc3ccccc3)cc2F)CC1`, the Potency is reported as inconclusive [activator, partial curve, poor fit]. With `COc1ccnc(N=CNOCc2ccc(F)cc2Cl)c1C#N` the Potency was inconclusive [inhibitor, single point]. For `Oc1c(Br)cc(/C=N/n2c(-c3ccccc3)n[nH]c2=S)c(Br)c1O`, the Potency was inconclusive [inhibitor, partial curve]. In the case of `O=C(c1cc(COc2ccc3ncccc3c2)on1)N1CCC[C@H]1CO`, the Potency is reported as active: 5.01 µM. With `CC(C)C[C@H](NC(=O)c1nc[nH]c1C(=O)N[C@@H](CCCCNC(=O)OC(C)(C)C)C(=O)OC(C)(C)C)C(=O)OCc1ccccc1` the Potency was inconclusive [inhibitor, single point]. For `Cc1cc(C(=O)COC(=O)C(C)NC(N)=O)c(C)n1Cc1ccco1` (configuration not stated), the “activity, negative = inhibition” value was inactive: -6.84%. With `CN(c1ccc(C(=O)NCCC2=CCCCC2)cc1)S(C)(=O)=O` the Potency was inconclusive [inhibitor, single point]. In the case of `CCN(CC)S(=O)(=O)c1ccc2c(c1)nc(SCc1nc3ccsc3c(=O)[nH]1)n2CC`, the “activity, negative = inhibition” value is reported as inactive: 3.76%. For `CCCCCCSC1=C(C#N)C(=O)NC2(CCCCC2)S1`, the Potency was inconclusive [inhibitor, single point]. In the case of `CC(NC(=O)C1CCCCC1)c1ccc2c(c1)OCCO2` (configuration not stated), the “activity, negative = inhibition” value is reported as inactive: -0.344%. For `COc1ccc(NC(=S)Nc2cc(C)[nH]n2)cc1Cl`, the Potency was inconclusive [inhibitor, single point]. In the case of `COc1ccc(/C=C/c2c([N+](=O)[O-])c(=O)n(C)c(=O)n2C)cc1`, the “activity, negative = inhibition” value is reported as inactive: 20.2%. In the case of `CCn1c(CN(C)c2ccccc2)nc2ccccc21`, the Potency is reported as active: 22.4 µM. In the case of `COc1ccc(/C=N/NC(=S)NCc2ccccc2)cc1OC`, the Potency is reported as inconclusive [inhibitor, single point]. For `NC(N)=NC(=O)Cc1c(Cl)cccc1Cl`, the Potency was inconclusive [inhibitor, single point].
